Measurements reported in the BET-seq Pho4 binding data (Le et al. 2018).
Some of the results follow. These are noisy estimates, calculated here from bound and input reads.

Each sequence was assayed against T1, Pho4 (S. cerevisiae) (UniProt P07270) (assay: relative binding free energy (BET-seq); higher = weaker binding). Conditions: reference: library average.
T1 sequence: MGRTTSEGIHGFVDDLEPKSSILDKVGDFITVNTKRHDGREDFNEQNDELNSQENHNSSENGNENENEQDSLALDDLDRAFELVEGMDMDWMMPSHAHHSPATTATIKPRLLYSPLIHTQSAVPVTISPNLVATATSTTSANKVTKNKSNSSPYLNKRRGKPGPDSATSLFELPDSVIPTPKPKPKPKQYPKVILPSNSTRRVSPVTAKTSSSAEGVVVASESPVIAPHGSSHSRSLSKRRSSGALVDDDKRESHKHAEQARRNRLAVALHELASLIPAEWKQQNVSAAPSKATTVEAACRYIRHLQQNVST

| Sequence | relative binding free energy |
| --- | --- |
| CTTGTCACGTGGGTCT | -0.09 kcal/mol |
| GCTAGCACGTGAGTAG | 0.36 kcal/mol |
| AGCTGCACGTGCGTGG | -0.11 kcal/mol |
| ATTCTCACGTGGCGTG | 0.14 kcal/mol |
| GTGAGCACGTGTGAGT | -0.04 kcal/mol |
| CTGTGCACGTGGTGGG | -0.13 kcal/mol |
| TTGTTCACGTGTTCTT | 0.28 kcal/mol |
| ACGTTCACGTGTTCGT | 0.2 kcal/mol |
| CGTGGCACGTGAAGGT | 0.09 kcal/mol |
| GTTGTCACGTGAGTAG | 0.39 kcal/mol |
| GTTGGCACGTGATTCT | 0.05 kcal/mol |
| AATCACACGTGTTGTG | 0.13 kcal/mol |
| GGCAACACGTGCGGGG | 0.02 kcal/mol |
| GGGAGCACGTGAGATG | 0.38 kcal/mol |
| TTTAACACGTGAATAT | 0.26 kcal/mol |
| GGTATCACGTGCGATG | 0.14 kcal/mol |
| TGACACACGTGTGGGG | 0.06 kcal/mol |
| GGTGTCACGTGCTTGA | -0.03 kcal/mol |
| TTGGGCACGTGCGACG | -0.1 kcal/mol |
| CGAGGCACGTGTGCTT | -0.08 kcal/mol |
| TATAACACGTGGTGTA | -0.18 kcal/mol |
| TGACGCACGTGGGGAT | -0.21 kcal/mol |
| CCATGCACGTGGGGGT | -0.16 kcal/mol |

| Sequence | relative binding free energy |
| --- | --- |
| CGGGGCACGTGATCGG | -0.17 kcal/mol |
| GGCTGCACGTGTCTGG | 0.11 kcal/mol |
| GGCGCCACGTGATGGG | -0.01 kcal/mol |
| AATGACACGTGTGTGT | -0.03 kcal/mol |
| AGTGACACGTGTTAGT | 0 kcal/mol |
| GTTAGCACGTGATGGG | 0.26 kcal/mol |
| GTCTTCACGTGGTCTT | 0.2 kcal/mol |
| GTTATCACGTGATTGT | 0.32 kcal/mol |
| ATTTGCACGTGTGCGG | 0.01 kcal/mol |
| ACTTGCACGTGATGTA | 0.04 kcal/mol |
| ATGTTCACGTGGCTGG | 0.2 kcal/mol |
| ATGTGCACGTGTTGGG | -0.06 kcal/mol |
| GGTATCACGTGGCGTT | 0.04 kcal/mol |
| GAGTTCACGTGAAAGG | 0.4 kcal/mol |
| GTTTACACGTGTAGTT | 0.25 kcal/mol |
| CGTATCACGTGTCGGG | 0.18 kcal/mol |
| CGTGACACGTGACGGG | 0.18 kcal/mol |
| AGCGTCACGTGTTGGT | 0.22 kcal/mol |
| CAGGGCACGTGGGCTA | -0.24 kcal/mol |
| GTTGGCACGTGGACTG | -0.07 kcal/mol |
| TAGGTCACGTGGTCCT | 0.08 kcal/mol |
| AATGACACGTGGATTT | 0.06 kcal/mol |
| AAGGGCACGTGATCGG | -0.26 kcal/mol |

| Sequence | relative binding free energy |
| --- | --- |
| TGAATCACGTGGGGCA | 0.02 kcal/mol |
| GGCTGCACGTGGGGTC | -0.23 kcal/mol |
| GTGGGCACGTGACAGG | -0.02 kcal/mol |
| CGGATCACGTGTCGGG | 0.21 kcal/mol |
| ATGTCCACGTGAGGGA | 0.23 kcal/mol |
| TATGTCACGTGATGGA | 0.12 kcal/mol |
| GGGAGCACGTGAGTGA | 0.18 kcal/mol |
| GTATTCACGTGTAGCG | 0.21 kcal/mol |
| AATGACACGTGGAGTA | 0.12 kcal/mol |
| GTTATCACGTGTGTTA | 0.14 kcal/mol |
| CAAATCACGTGTAGGT | 0.17 kcal/mol |
| GGAAGCACGTGAGTTT | 0.14 kcal/mol |
| GGAGTCACGTGAGGCA | 0.2 kcal/mol |
| TTTTGCACGTGCGTTC | -0.04 kcal/mol |
| GGTGCCACGTGTACTG | 0.07 kcal/mol |
| GTTGGCACGTGTTCTT | -0.13 kcal/mol |
| TAATGCACGTGTTCGA | 0.05 kcal/mol |
| CGGCGCACGTGGTGGT | -0.22 kcal/mol |
| GGTGACACGTGGTGGA | 0.05 kcal/mol |
| GCTTACACGTGTGTGT | 0.23 kcal/mol |
| TTCTTCACGTGGTGCG | 0.12 kcal/mol |
| TCATTCACGTGAGTTG | 0.35 kcal/mol |
| TTAAACACGTGATTTA | 0.03 kcal/mol |

| Sequence | relative binding free energy |
| --- | --- |
| GGCGTCACGTGAATGG | 0.31 kcal/mol |
| GATGTCACGTGAGGAG | 0.31 kcal/mol |
| TGTCGCACGTGACGTG | 0.04 kcal/mol |
| GTGGGCACGTGTGTGC | -0.11 kcal/mol |
| TGTGCCACGTGGGCGT | -0.21 kcal/mol |
| ATTTTCACGTGTTATT | 0.23 kcal/mol |
| GGTTACACGTGATAAT | 0.21 kcal/mol |
| TTGGACACGTGGGCGG | -0.18 kcal/mol |
| TGTGGCACGTGAGCTG | 0.04 kcal/mol |
| TGGGTCACGTGGCGGC | 0.1 kcal/mol |
| AGGATCACGTGGTCGA | 0.02 kcal/mol |
| GTACGCACGTGTTTGA | -0.01 kcal/mol |
| TGAAACACGTGACGGG | 0.14 kcal/mol |
| GCGATCACGTGGTGTT | 0.22 kcal/mol |
| AATTACACGTGGGGTA | -0.15 kcal/mol |
| TATATCACGTGGTGGT | 0.07 kcal/mol |
| TTTCGCACGTGAAGGT | 0.12 kcal/mol |
| GGAAACACGTGGATGT | 0.22 kcal/mol |
| CAGGTCACGTGGGTCG | -0.02 kcal/mol |
| TGGGTCACGTGGTGAT | 0.13 kcal/mol |
| AATGTCACGTGAAGTA | 0.2 kcal/mol |
| AAGAGCACGTGGGGAG | -0.31 kcal/mol |
| TGTTGCACGTGTGCGG | -0.06 kcal/mol |

| Sequence | relative binding free energy |
| --- | --- |
| AGTTCCACGTGGGGTT | 0.07 kcal/mol |
| TTATTCACGTGAATGC | 0.28 kcal/mol |
| TGTAGCACGTGTCATT | -0.12 kcal/mol |
| AATGGCACGTGGATAA | -0.05 kcal/mol |
| GTATCCACGTGGGTTA | -0.02 kcal/mol |
| GTATACACGTGCTGGT | 0.04 kcal/mol |
| ATTCTCACGTGGGGAT | -0.02 kcal/mol |
| AGAAGCACGTGTGTAA | -0.02 kcal/mol |
| GCATTCACGTGGAGTT | 0.33 kcal/mol |
| GCGAGCACGTGGGGTA | -0.19 kcal/mol |
| TAGGTCACGTGTATCG | 0.13 kcal/mol |
| ATGGGCACGTGAGCGG | -0.01 kcal/mol |
| AGTGGCACGTGGCGTT | -0.15 kcal/mol |
| GTATTCACGTGGTTAC | 0.18 kcal/mol |
| TTGGGCACGTGCGCGA | -0.23 kcal/mol |
| GTTGTCACGTGCACGT | 0.12 kcal/mol |
| GGGCGCACGTGAAGGC | 0.25 kcal/mol |
| CGCTGCACGTGAGGGA | 0.29 kcal/mol |
| ATTTTCACGTGGGCGA | 0.07 kcal/mol |
| TTCATCACGTGGTGTA | 0.16 kcal/mol |
| TTTATCACGTGAACGG | 0.32 kcal/mol |
| ATTGGCACGTGGGCTG | -0.22 kcal/mol |
| AAATACACGTGGTGAG | 0.14 kcal/mol |
